{"source": "paper PMC4336329", "about": "(PLoS ONE, 2015)", "note": "The campaign covered roughly 310,000 compounds. About 2,200 (0.71%) showed an effect of 50% or more. Effects have a minus sign here. This is one part of the list."}
{"target": "human ether-à-go-go-related gene (hERG) potassium channel (human, UniProt Q12809)", "sequence (Q12809 whole entry, looked up)": "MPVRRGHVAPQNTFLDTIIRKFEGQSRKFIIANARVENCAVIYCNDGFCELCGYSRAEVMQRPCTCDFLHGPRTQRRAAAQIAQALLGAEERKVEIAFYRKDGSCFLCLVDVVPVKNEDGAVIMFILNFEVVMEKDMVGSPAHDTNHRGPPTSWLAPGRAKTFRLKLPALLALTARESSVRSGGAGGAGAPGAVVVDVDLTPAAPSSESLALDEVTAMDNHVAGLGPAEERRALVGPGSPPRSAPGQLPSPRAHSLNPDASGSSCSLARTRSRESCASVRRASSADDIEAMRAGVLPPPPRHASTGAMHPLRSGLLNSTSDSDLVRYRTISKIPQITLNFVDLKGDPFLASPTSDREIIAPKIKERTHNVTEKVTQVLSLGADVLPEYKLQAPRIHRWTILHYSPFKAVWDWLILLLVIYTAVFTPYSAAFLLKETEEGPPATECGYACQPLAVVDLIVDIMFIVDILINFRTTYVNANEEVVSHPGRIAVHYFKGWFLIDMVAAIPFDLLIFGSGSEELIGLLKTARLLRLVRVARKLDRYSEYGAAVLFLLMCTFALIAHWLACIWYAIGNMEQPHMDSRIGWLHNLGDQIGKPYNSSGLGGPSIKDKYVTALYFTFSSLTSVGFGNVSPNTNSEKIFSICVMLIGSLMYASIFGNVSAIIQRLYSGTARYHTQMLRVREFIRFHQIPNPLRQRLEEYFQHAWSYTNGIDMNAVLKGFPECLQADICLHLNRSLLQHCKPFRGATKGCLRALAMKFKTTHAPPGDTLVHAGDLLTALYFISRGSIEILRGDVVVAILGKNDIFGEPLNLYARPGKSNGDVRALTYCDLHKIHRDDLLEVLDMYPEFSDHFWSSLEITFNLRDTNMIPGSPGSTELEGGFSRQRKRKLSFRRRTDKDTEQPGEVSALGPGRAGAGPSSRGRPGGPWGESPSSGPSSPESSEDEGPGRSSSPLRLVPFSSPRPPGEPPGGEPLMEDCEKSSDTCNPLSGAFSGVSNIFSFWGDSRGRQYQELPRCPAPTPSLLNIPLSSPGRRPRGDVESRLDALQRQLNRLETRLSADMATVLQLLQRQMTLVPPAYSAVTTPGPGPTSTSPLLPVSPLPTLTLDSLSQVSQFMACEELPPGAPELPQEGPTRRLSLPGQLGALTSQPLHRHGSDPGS", "experiment": "primary screen, population patch clamp on CHO cells stably expressing hERG", "units": {"hERG current change (%, negative = inhibition) at 1uM": "%"}}
{"compound": "CCN(CC)C(=O)Cn1nnc(-c2ccc(S(C)(=O)=O)cc2)n1", "hERG current change (%, negative = inhibition) at 1uM": 15}
{"compound": "CCN(CC)CCN1C(=O)c2ccccc2NC1c1ccc(F)cc1", "note": "(stereo not shown)", "hERG current change (%, negative = inhibition) at 1uM": -30.5}
{"compound": "O=C(NCCNS(=O)(=O)c1ccccc1)N1CCOCC1", "hERG current change (%, negative = inhibition) at 1uM": 6.45}
{"compound": "CCOC(=O)C1(C)C=C(Nc2ccc(OC)cc2)C(=O)N1c1ccc(OC)cc1", "note": "(stereo not shown)", "hERG current change (%, negative = inhibition) at 1uM": 12.3}
{"compound": "Cc1cc2cc(CCNC(=O)c3ccc(C)c([N+](=O)[O-])c3)c(=O)[nH]c2cc1C", "hERG current change (%, negative = inhibition) at 1uM": 8.12}
{"compound": "CN(Cc1ccc(F)cc1)C(=O)c1cccc(S(=O)(=O)NCc2ccccc2)c1", "hERG current change (%, negative = inhibition) at 1uM": 3.13}
{"compound": "Cc1csc(SCC(=O)Nc2sccc2C(N)=O)n1", "hERG current change (%, negative = inhibition) at 1uM": 12.5}
{"compound": "CC1CCN(C(=O)CSCC(=O)O)CC1", "hERG current change (%, negative = inhibition) at 1uM": 15.3}
{"compound": "O=[N+]([O-])c1ccccc1S(=O)(=O)N1CCSCC1", "hERG current change (%, negative = inhibition) at 1uM": 9.46}
{"compound": "COC(=O)c1c(C)c2c(C)cc3ccccn3c-2c1C(=O)OC", "hERG current change (%, negative = inhibition) at 1uM": 2.84}
{"compound": "CCC[N+](CC#CCO)(CC#Cc1ccccc1)CCC.[Br-]", "hERG current change (%, negative = inhibition) at 1uM": 5.79}
{"compound": "C/C(=N\\NC(=O)c1ccncc1)c1ccc(N2CCOCC2)cc1", "hERG current change (%, negative = inhibition) at 1uM": 3.84}
{"compound": "O=C(NCC1CCOCC1)c1cc(COc2ccc(F)cc2F)on1", "hERG current change (%, negative = inhibition) at 1uM": 2.28}
{"compound": "O=C(NCc1ccccc1)N1CCC(n2cnc3cc(F)ccc32)CC1", "hERG current change (%, negative = inhibition) at 1uM": -56.6}
{"compound": "N#C/C(C(=O)NCc1ccccc1)=C1/N=C(NC(=O)c2ccco2)c2ccccc21", "hERG current change (%, negative = inhibition) at 1uM": 14.6}
{"compound": "O=C(Nc1ccccc1)C1CCCN1S(=O)(=O)c1ccc(Br)cc1", "note": "(stereo not shown)", "hERG current change (%, negative = inhibition) at 1uM": 15.4}
{"compound": "O=C(CSc1ccc(-c2ccc(F)cc2)nn1)NCC1CCCO1", "note": "(stereo not shown)", "hERG current change (%, negative = inhibition) at 1uM": 11.2}
{"compound": "CS(=O)(=O)N1CCC(C(=O)NCc2ccc(F)cc2Cl)CC1", "hERG current change (%, negative = inhibition) at 1uM": 4.05}
{"compound": "Cc1noc(C)c1S(=O)(=O)N1CCN(c2ccccc2)CC1", "hERG current change (%, negative = inhibition) at 1uM": 13.4}
{"compound": "O=C(COC(=O)c1ccccc1F)Nc1cc(S(=O)(=O)N2CCOCC2)ccc1N1CCCC1", "hERG current change (%, negative = inhibition) at 1uM": 0.893}
{"compound": "CC1Cc2cc(C(=O)O)ccc2O1", "note": "(stereo not shown)", "hERG current change (%, negative = inhibition) at 1uM": 0.102}
{"compound": "CCOc1cccc(C(=O)NC(=S)Nc2cccc(C)c2)c1", "hERG current change (%, negative = inhibition) at 1uM": 1.57}
{"compound": "Cc1ccc(Nc2nnc(SCC(=O)Nc3cccc(S(=O)(=O)NC4=NCCCCC4)c3)s2)c(C)c1", "hERG current change (%, negative = inhibition) at 1uM": 7.44}
{"compound": "O=C(N/N=C/c1cc2ccccc2nc1Cl)c1ccncc1", "hERG current change (%, negative = inhibition) at 1uM": -3.13}
{"compound": "CCOc1ccc2[nH]c3c(N4CCN(C(=O)c5ccco5)CC4)ncnc3c2c1", "hERG current change (%, negative = inhibition) at 1uM": -3.41}
{"compound": "O=C(c1ccco1)N1N=C2CCCCCC2C1(O)C(F)(F)F", "note": "(stereo not shown)", "hERG current change (%, negative = inhibition) at 1uM": 9.28}
{"compound": "COc1cc(C(=O)Nc2ccc3c(c2)C(=O)c2ccccc2C3=O)cc(OC)c1OC", "hERG current change (%, negative = inhibition) at 1uM": -0.394}
{"compound": "COc1ccc(C2NC(=O)NC(C)=C2C(=O)OC2CCC(C)CC2)cc1", "note": "(stereo not shown)", "hERG current change (%, negative = inhibition) at 1uM": 11.1}
{"compound": "CC(C)(C)C(=O)N(Cc1ccccc1)c1ccccn1", "hERG current change (%, negative = inhibition) at 1uM": 8.84}
{"compound": "CCOC(=O)CSc1nc(C)c(Oc2ccc(Cl)cc2Cl)c(=O)[nH]1", "hERG current change (%, negative = inhibition) at 1uM": 7.67}
{"compound": "CC(=O)c1ccc(OCCCC(=O)Nc2ccc(C)c(S(=O)(=O)N(C)C)c2)cc1", "hERG current change (%, negative = inhibition) at 1uM": 12.7}
{"compound": "CNc1ccc(C(=O)OCC(=O)Nc2ccnn2C(C)C)cc1[N+](=O)[O-]", "hERG current change (%, negative = inhibition) at 1uM": 14.8}
{"compound": "N/C(=N\\OC(=O)C1CCCCC1)c1cccc([N+](=O)[O-])c1", "hERG current change (%, negative = inhibition) at 1uM": 9.29}
{"compound": "COc1ccc(C(=O)Nc2cc3c(cc2N2CCOCC2)n(C)c(=O)n3C)cc1OC", "hERG current change (%, negative = inhibition) at 1uM": 11.8}
{"compound": "Cc1ccc(/C=N/Nc2cc(C)nc(NCc3ccccc3)n2)cc1", "hERG current change (%, negative = inhibition) at 1uM": 11.1}
{"compound": "Cc1ccc(NC(=O)CSc2nnc(Cn3c(=O)sc4ccccc43)n2C)cc1Cl", "hERG current change (%, negative = inhibition) at 1uM": 6.75}
{"compound": "Cc1ccc(NC(=S)N(CCCN2CCOCC2)Cc2cccs2)c(C)c1", "hERG current change (%, negative = inhibition) at 1uM": 5.6}
{"compound": "COC(=O)c1ccc(NC(=O)CSc2nc3ncccc3[nH]2)cc1", "hERG current change (%, negative = inhibition) at 1uM": 10.5}
{"compound": "Cn1c(=O)cc(OCCCC(=O)N2CCN(c3ccccc3)CC2)c2ccccc21", "hERG current change (%, negative = inhibition) at 1uM": -18.6}
{"compound": "C[C@]12CCC[C@H](O1)[C@H]([C@@H](O)c1ccccc1)O2", "hERG current change (%, negative = inhibition) at 1uM": 16.5}
{"compound": "O=C(N/N=C/c1c(O)ccc2ccccc12)Nc1ccccc1", "hERG current change (%, negative = inhibition) at 1uM": 13.3}
{"compound": "N#Cc1cnc(NCc2ccc(Cl)cc2Cl)nc1", "hERG current change (%, negative = inhibition) at 1uM": 8.08}
{"compound": "CC1CC(C)CN(S(=O)(=O)c2cc3c4c(c2)C(C)C(=O)N4CCC3)C1", "note": "(stereo not shown)", "hERG current change (%, negative = inhibition) at 1uM": 17.1}
{"compound": "CC(=O)c1ccc(NC(=O)C2CCCN2S(=O)(=O)c2cccs2)cc1", "note": "(stereo not shown)", "hERG current change (%, negative = inhibition) at 1uM": 16.1}
{"compound": "O=C(NCc1cccs1)c1noc2c1CCCCC2", "hERG current change (%, negative = inhibition) at 1uM": 1.97}
{"compound": "COc1ccccc1NC(=O)N1CCn2c(nc3ccccc32)C1", "hERG current change (%, negative = inhibition) at 1uM": -5.19}
